Measured values published in US20220267464A1 (Hoffmann-La Roche, published 2022).

T1: human CEACAM5 (carcinoembryonic antigen, CEA) on cells (human, UniProt P06731 35-685)
T1 sequence: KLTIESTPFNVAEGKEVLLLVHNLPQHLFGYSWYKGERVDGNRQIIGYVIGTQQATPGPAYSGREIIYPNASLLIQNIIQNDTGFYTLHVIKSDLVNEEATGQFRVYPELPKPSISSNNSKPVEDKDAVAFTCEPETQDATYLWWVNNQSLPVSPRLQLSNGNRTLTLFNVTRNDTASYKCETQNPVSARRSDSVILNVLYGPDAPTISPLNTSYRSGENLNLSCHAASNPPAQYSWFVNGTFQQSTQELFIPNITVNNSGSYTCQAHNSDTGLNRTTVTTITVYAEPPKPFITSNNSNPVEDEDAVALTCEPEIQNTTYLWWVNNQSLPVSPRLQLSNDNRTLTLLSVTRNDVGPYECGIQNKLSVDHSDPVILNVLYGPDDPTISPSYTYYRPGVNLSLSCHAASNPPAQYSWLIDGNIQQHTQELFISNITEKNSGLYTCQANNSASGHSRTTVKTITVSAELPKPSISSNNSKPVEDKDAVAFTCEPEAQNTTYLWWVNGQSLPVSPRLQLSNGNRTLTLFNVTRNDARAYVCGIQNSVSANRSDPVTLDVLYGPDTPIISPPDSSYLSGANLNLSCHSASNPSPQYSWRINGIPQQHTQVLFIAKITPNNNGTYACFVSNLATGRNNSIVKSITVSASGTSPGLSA


What was measured:
[1] = target: T1, human CEACAM5 (carcinoembryonic …); test: cell-based or functional assay
[2] = target: T1, human CEACAM5 (carcinoembryonic …); test: cell-based or functional assay; set-up: AUC of activation curve, Jurkat-hu4-1BB-NFκB-luc2, no CEA+ cells / AUC of activation curve, Jurkat-hu4-1BB-NFκB-luc2 with CHO-k1-cyno CEACAM5 clone 8: unit not given beside the values
[3] = target: T2, cynomolgus monkey CEACAM5 on CHO-k1-cynoCEACAM5 clone 8 cells (cynomolgus monkey); test: cell-based or functional assay; set-up: AUC of activation curve, Jurkat-hu4-1BB-NFκB-luc2, no CEA+ cells / AUC of activation curve, Jurkat-hu4-1BB-NFκB-luc2 with CHO-k1-cyno CEACAM5 clone 8: unit not given beside the values
[4] = target: human 4-1BB on Jurkat-hu4-1BB-NFκB-luc2 reporter cells (human, UniProt Q07011 24-255); test: cell-based or functional assay; set-up: AUC of activation curve, Jurkat-hu4-1BB-NFκB-luc2, no CEA+ cells / AUC of activation curve, Jurkat-hu4-1BB-NFκB-luc2 with CHO-k1-cyno CEACAM5 clone 8: unit not given beside the values
[5] = target: T1, human CEACAM5 (carcinoembryonic …); test: flow cytometry, CHO-k1-huCEACAM5 clone 11
[6] = target: T1, human CEACAM5 (carcinoembryonic …); test: flow cytometry, CHO-k1-huCEACAM5 clone 12
[7] = target: T1, human CEACAM5 (carcinoembryonic …); test: flow cytometry, CHO-k1-huCEACAM5 clone 13
[8] = target: T1, human CEACAM5 (carcinoembryonic …); test: flow cytometry, CHO-k1-huCEACAM5 clone 17
[9] = target: T1, human CEACAM5 (carcinoembryonic …); test: flow cytometry, CHO-k1-huCEACAM5 clone 11; set-up: unit not given beside the values
[10] = target: T1, human CEACAM5 (carcinoembryonic …); test: flow cytometry, CHO-k1-huCEACAM5 clone 12; set-up: unit not given beside the values
[11] = target: T1, human CEACAM5 (carcinoembryonic …); test: flow cytometry, CHO-k1-huCEACAM5 clone 13; set-up: unit not given beside the values
[12] = target: T1, human CEACAM5 (carcinoembryonic …); test: flow cytometry, CHO-k1-huCEACAM5 clone 17; set-up: unit not given beside the values
[13] = target: T2, cynomolgus monkey CEACAM5 on …; test: flow cytometry, CHO-k1-cynoCEACAM5 clone 8; set-up: unit not given beside the values

Chain of UniProt Q07011 (Q07011 24-255 limits assumed): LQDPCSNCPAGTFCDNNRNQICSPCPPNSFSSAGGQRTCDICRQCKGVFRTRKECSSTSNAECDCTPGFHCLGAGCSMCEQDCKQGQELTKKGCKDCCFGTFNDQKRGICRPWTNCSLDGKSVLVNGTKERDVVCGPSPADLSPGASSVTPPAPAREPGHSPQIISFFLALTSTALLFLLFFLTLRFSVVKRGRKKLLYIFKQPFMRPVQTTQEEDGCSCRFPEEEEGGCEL

EC50, NFκB-luciferase in Jurkat-hu4-1BB-NFκB-luc2 with CHO-k1-human CEACAM5 clone 11 [1] | EC50, NFκB-luciferase in Jurkat-hu4-1BB-NFκB-luc2 with CHO-k1-human CEACAM5 clone 12 [1] | AUC of activation curve, Jurkat-hu4-1BB-NFκB-luc2 with CHO-k1-human CEACAM5 clone 11 [2] | AUC of activation curve, Jurkat-hu4-1BB-NFκB-luc2 with CHO-k1-human CEACAM5 clone 12 [2] | AUC of activation curve, Jurkat-hu4-1BB-NFκB-luc2 with CHO-k1-cyno CEACAM5 clone 8 [3] | AUC of activation curve, Jurkat-hu4-1BB-NFκB-luc2, no CEA+ cells [4] | EC50 [5] | EC50 [6] | EC50 [7] | EC50 [8] | AUC [9] | AUC [10] | AUC [11] | AUC [12] | AUC [13] | Binder
0.06 nM | 0.04 nM | 161000 | 163000 | 3600 | 2560 | 1.93 nM | 4.83 nM | 6.2 nM | 1.93 nM | 24100 | 74700 | 101000 | 26000 | 275 | CEA(huMFE23-L28-H24)-4-1BBL (Fc fusion, split trimeric 4-1BBL Fc (kih) P329G LALA with one anti-CEA Fab; also called CEA(MFE23-L28-H24)-4-1BBL) chain 1: REGPELSPDDPAGLLDLRQGMFAQLVAQNVLLIDGPLSWYSDPGLAGVSLTGGLSYKEDTKELVVAKAGVYYVFFQLELRRVVAGEGSGSVSLALHLQPLRSAAGAAALALTVDLPPASSEARNSAFGFQGRLLHLSAGQRLGVHLHTEARARHAWQLTQGATVLGLFRVTPEIPAGLGGGGSGGGGSREGPELSPDDPAGLLDLRQGMFAQLVAQNVLLIDGPLSWYSDPGLAGVSLTGGLSYKEDTKELVVAKAGVYYVFFQLELRRVVAGEGSGSVSLALHLQPLRSAAGAAALALTVDLPPASSEARNSAFGFQGRLLHLSAGQRLGVHLHTEARARHAWQLTQGATVLGLFRVTPEIPAGLGGGGSGGGGSRTVAAPSVFIFPPSDRKLKSGTASVVCLLNNFYPREAKVQWKVDNALQSGNSQESVTEQDSKDSTYSLSSTLTLSKADYEKHKVYACEVTHQGLSSPVTKSFNRGE[human IgG1 Fc with changes not spelt out] chain 2: REGPELSPDDPAGLLDLRQGMFAQLVAQNVLLIDGPLSWYSDPGLAGVSLTGGLSYKEDTKELVVAKAGVYYVFFQLELRRVVAGEGSGSVSLALHLQPLRSAAGAAALALTVDLPPASSEARNSAFGFQGRLLHLSAGQRLGVHLHTEARARHAWQLTQGATVLGLFRVTPEIPAGLGGGGSGGGGSASTKGPSVFPLAPSSKSTSGGTAALGCLVEDYFPEPVTVSWNSGALTSGVHTFPAVLQSSGLYSLSSVVTVPSSSLGTQTYICNVNHKPSNTKVDEKVEPKSC heavy: QVQLVQSGAEVKKPGASVKVSCKASGFNIKDSYMHWVRQAPGQGLEWMGWIDPENGDTEYAPKFQGRVTMTTDTSISTAYMELSRLRSDDTAVYYCNEGTPTGPYYFDYWGQGTLVTVSSASTKGPSVFPLAPSSKSTSGGTAALGCLVKDYFPEPVTVSWNSGALTSGVHTFPAVLQSSGLYSLSSVVTVPSSSLGTQTYICNVNHKPSNTKVDKKVEPKSCDKTHTCPPCPAPEAAGGPSVFLFPPKPKDTLMISRTPEVTCVVVDVSHEDPEVKFNWYVDGVEVHNAKTKPREEQYNSTYRVVSVLTVLHQDWLNGKEYKCKVSNKALGAPIEKTISKAKGQPREPQVCTLPPSRDELTKNQVSLSCAVKGFYPSDIAVEWESNGQPENNYKTTPPVLDSDGSFFLVSKLTVDKSRWQQGNVFSCSVMHEALHNHYTQKSLSLSP light: EIQMTQSPSSLSASVGDRVTITCRASSSVPYMHWLQQKPGKAPKLLIYSTSNLASGVPSRFSGSGSGTDFTLTISSVQPEDFATYYCQQRSSYPLTFGGGTKLEIKRTVAAPSVFIFPPSDEQLKSGTASVVCLLNNFYPREAKVQWKVDNALQSGNSQESVTEQDSKDSTYSLSSTLTLSKADYEKHKVYACEVTHQGLSSPVTKSFNRGEC
0.1 nM | 0.07 nM | 147000 | 146000 | 3420 | 2530 | 2.98 nM | 8.32 nM | 15.4 nM | 3.26 nM | 21700 | 65900 | 78500 | 23100 | 270 | CEA(huMFE23-L28-H28)-4-1BBL (Fc fusion, split trimeric 4-1BBL Fc (kih) P329G LALA with one anti-CEA Fab; also called CEA(MFE23-L28-H28)-4-1BBL) chain 1: REGPELSPDDPAGLLDLRQGMFAQLVAQNVLLIDGPLSWYSDPGLAGVSLTGGLSYKEDTKELVVAKAGVYYVFFQLELRRVVAGEGSGSVSLALHLQPLRSAAGAAALALTVDLPPASSEARNSAFGFQGRLLHLSAGQRLGVHLHTEARARHAWQLTQGATVLGLFRVTPEIPAGLGGGGSGGGGSREGPELSPDDPAGLLDLRQGMFAQLVAQNVLLIDGPLSWYSDPGLAGVSLTGGLSYKEDTKELVVAKAGVYYVFFQLELRRVVAGEGSGSVSLALHLQPLRSAAGAAALALTVDLPPASSEARNSAFGFQGRLLHLSAGQRLGVHLHTEARARHAWQLTQGATVLGLFRVTPEIPAGLGGGGSGGGGSRTVAAPSVFIFPPSDRKLKSGTASVVCLLNNFYPREAKVQWKVDNALQSGNSQESVTEQDSKDSTYSLSSTLTLSKADYEKHKVYACEVTHQGLSSPVTKSFNRGE[human IgG1 Fc with changes not spelt out] chain 2: REGPELSPDDPAGLLDLRQGMFAQLVAQNVLLIDGPLSWYSDPGLAGVSLTGGLSYKEDTKELVVAKAGVYYVFFQLELRRVVAGEGSGSVSLALHLQPLRSAAGAAALALTVDLPPASSEARNSAFGFQGRLLHLSAGQRLGVHLHTEARARHAWQLTQGATVLGLFRVTPEIPAGLGGGGSGGGGSASTKGPSVFPLAPSSKSTSGGTAALGCLVEDYFPEPVTVSWNSGALTSGVHTFPAVLQSSGLYSLSSVVTVPSSSLGTQTYICNVNHKPSNTKVDEKVEPKSC heavy: QVQLVQSGAEVKKPGASVKVSCKASGFNIKDSYMHWVRQAPGQGLEWMGWIDPENGDTEYAPKFQGRVTMTRDTSISTAYMELSRLRSDDTAVYYCNEGTPTGPYYFDYWGQGTLVTVSSASTKGPSVFPLAPSSKSTSGGTAALGCLVKDYFPEPVTVSWNSGALTSGVHTFPAVLQSSGLYSLSSVVTVPSSSLGTQTYICNVNHKPSNTKVDKKVEPKSCDKTHTCPPCPAPEAAGGPSVFLFPPKPKDTLMISRTPEVTCVVVDVSHEDPEVKFNWYVDGVEVHNAKTKPREEQYNSTYRVVSVLTVLHQDWLNGKEYKCKVSNKALGAPIEKTISKAKGQPREPQVCTLPPSRDELTKNQVSLSCAVKGFYPSDIAVEWESNGQPENNYKTTPPVLDSDGSFFLVSKLTVDKSRWQQGNVFSCSVMHEALHNHYTQKSLSLSP light: EIQMTQSPSSLSASVGDRVTITCRASSSVPYMHWLQQKPGKAPKLLIYSTSNLASGVPSRFSGSGSGTDFTLTISSVQPEDFATYYCQQRSSYPLTFGGGTKLEIKRTVAAPSVFIFPPSDEQLKSGTASVVCLLNNFYPREAKVQWKVDNALQSGNSQESVTEQDSKDSTYSLSSTLTLSKADYEKHKVYACEVTHQGLSSPVTKSFNRGEC
